Laboratory results from the RNAGym collection of RNA variant scans (doi:10.7554/elife.90254).
Read counts are not given, so values of variants with three or more changes are uncertain.

B1: LINE1-mini (parent)
chain: GGCAGAGCUCAACACAGCGUGGCAAAGUGGCUGUGGCUAGACUGCC

Variants of: B1
Assay: self-cleavage, relative activity (ratio to wild type); higher = more cleavage; in vitro, sequencing; the parent is a self-cleaving ribozyme

Variant	self-cleavage
GACAGAGCUCAACACAGCGUCGCAAAGUGGCUGUGGUUAGACUGCC	0.14
GACAGAGCUCAACACAGCGUCUCAAACUGGCUGUGGCUAAACUGCC	0.15
GACAGAGCUCAACACAGCGUUGGAAAGUGGCUUUGGCUAGACUGCC	0.21
GACAGAGCUCAACACAGCGUUGCAAAGAGGCUGUGGCUAGAAUGCC	0.12
GACAGAGCUCAACACAGCGUUGCAAAGAGGCUGUGGCGAGACUGCC	0.01
GACAGAGCUCAACACAGCGUUGCAAAGUGGCUGUGGCCCUACUGCC	0.07
GACAGAGCUCAACACAGCGUGACAUAGUGGCUGUGGCUAGACUGCC	2.35
GACAGAGCUCAACACAGCGUGACAAAGUGGCUGUGGCUAGACUGCA	0.17
GACAGAGCUCAACACAGCGUGACAAAGUGGCUGUGGCAAGACUGCC	0.24
GACAGAGCUCAACACAGCGUGCCAAAGUGGCUGUCGUUAGACUGUC	0.06
GACAGAGCUCAACACAGCGUGUCAAAGUGGUUGUGGCUAGACUGCC	0.43
GACAGAGCUCAACACAGCGUGUCAAAGUGGUUGUGGCUUGUCUACC	0.02
GACAGAGCUCAACACAGCGUGUCAAAAUUGCUGUGACUAGACUGCC	0.09
GACAGAGCUCAACACAGCGUGGCAAAAAGGCUGAGGCUAGCCUGCC	0.01
GACAGAGCUCAACACAGCGUGGCAAACUGGCUGUGGCUAUACUGCC	0.19
GACAGAGCUCAACACAGCGUGGCAAAUUGGCUGUGGCUUGACUGCC	0.14
GACAGAGCUCAACACAGCGUGGCAAAGUAGCUGUGCCUAGACUGCA	0.04
GACAGAGCUCAACACAGCGUGGCAAAGUCGCUGUGGUUGGACUGCC	0.03
GACAGAGCUCAACACAGCGUGGCAAAGUUGCUGUGGAUAGACUGCC	0.46

Variant	self-cleavage
GACAGAGCUCAACACAGCGUGGCAAAGUUACUGUGGCUAGACUGCC	0.34
GACAGAGCUCAACACAGCGUGGCAAAGUGUCUGUGGUUAGACUGCC	0.05
GACAGAGCUCAACACAGCGUGGCAAAGUGGCUAUGGCUAGACUGCA	0.25
GACAGAGCUCAACACAGCGUGGCAAAGUGGCUAUAUAUAGACUGCC	0.27
GACAGAGCUCAACACAGCGUGGCAAAGUGGCUUUGGCUGGACUGCC	0.49
GACAGAGCUCAACACAGCGUGGCAAAGUGGCUUGGGCUAUACUGCC	0.22
GACAGAGCUCAACACAGCGUGGCAAAGUGGCUGUAGUUACACUGCC	0.01
GACAGAGCUCAACACAGCGUGGCAAAGUGGCUGUUGCUAGACUCCC	0.14
GACAGAGCUCAACACAGCGUGGCAAAGUGGCUGUGACUAGACAGCC	0.04
GACAGAGCUCAACACAGCGUGGCAAAGUGGCUGUGUCUUGACUGCC	0.03
GACAGAGCUCAACACAGCGUGGCAAAGUGGCUGUGUCUAGACCCCC	0.03
GACAGAGCUCAACACAGCGUGGCAAAGUGGCUGUGGCUAGACUUCG	1.08
GACAGAGCACAACACCGCGUGACAAAGUGGCUGUGACUAGACUGCC	0.17
GACAGAGCACAAAACAGCGUGGCAAAGCGGCUGUGGCAAGACUGCC	0.07
GACAGAGCACAACACAUCGUAGAAAAGUGCUUGUGGCUAGACUGCC	0.01
GACAGAGCACAACACAGCGUGACAAAGUGGCUAUGACAAGACUGCC	0.14
GACAGAGCCCCAAUCAGCGUGGCAAGGUGGCUGUGGGUAGACUGCC	0.03
GACAGAGCGCAACACAGCGUGGCAAAGUGGCUGUGGCUAGUCUGCC	0.22
GACAGAGCGUAACAUAGCGUGGCAAAGUGGCUGUGGCUUGACUACC	0.11

Variant	self-cleavage
GACAGAGCGCAAAACAGCGUGGCACAGUGGCUGUGGCUAAACUGCC	0.1
GACAGAGCGCAACAUAGCGUGGCAAAGUGGCUGUGGCUAGACUGAC	0.05
GACAGAGCGCAACACACGGUGGCAUAGUGGCUGUGGCUAGAUUGCC	0.21
GACAGAGCGCAACACAGCGUGGCAAAGUGGCUGAGGCUACACUGCC	0.03
GACAGAGCUCAACACAGCGAGGCAAAGUGGCUGGUGCUAGACUGCC	0.18
GACAGAGCUCAACACAGCGCGGCAAAGUGGCUGUGGAUAGACUGCC	0.11
GACAGAGCUCAACACAGCGCGGCAAAGUGUCUGUGGCUAGACUGCC	0.21
GACAGAGCUCAACACAGCGGGGCAAAGUAGCUGUAGCUAGAUUGCC	0.36
GACAGAGCUCAACACAGCGGGGCAAAGUGGCCGUGGCUAGACUGCC	0.05
GACAGAGCUCAACACAGCGUGGCAAAGAGGCUGUGGCUAUACUGCC	0.05
GACAGAGCUCAACACAGCGUGGCAAAGCGGGUGUGGCUAGACUGCG	0.05
GACAGAGCUCAACACAGCGUGGCAAAGCGGCGGAGACUAGACUGCC	0.02
GACAGAGCUCAACACAGCGUGGCAAAGGGGCUGUGGGUAGACUGAC	0.1
GACAGAGCUCAACACAGCGUGGCAAAGUGGCUGCGGCUCGACUGCC	0.13
GACAGAGCUCAACACAGCGUGGCAAAGUGGCUGGGGCUAGGCUGCC	0.08
GACAGAGCUCAACACAGCGUGGCAAAGUGGCUGGGGCUAGACUGUC	0.21
GACAGAGCUCAACACAGCGUGGCAAAGUGGCUGUGGCAAGUCUGCC	0.23
GACAGAGCUCAACACAGCGUGGCAAAGUGGCUGUGGCGAGACUGCA	0.05
